The campaign covered roughly 280,000 compounds. About 100 (0.036%) were called active. The inconclusive results got no clear call from the source; some entries with a clear call stand among them for comparison. Calls follow the shape of the dose curve; as a rule, active = well fitted inhibition curve with a large enough effect in the signal ratio, with a control signal flat (not every such curve was filed as active); inconclusive = small, poorly fitted or top-dose-only effect, or effect the other way, or a change in a side signal; inactive = no such curve, though single readings can be large or run the other way; the % refers to the signal ratio. Potencies of inconclusive entries are doubtful fits and often do not repeat. “Side channel” marks fits to a control or component signal instead of the main read-out.
The compounds below were run against Muscleblind-like protein 1 (Homo sapiens) (UniProt Q9NR56) (assay: qHTS Assay for Inhibitors of MBNL1-poly(CUG) RNA binding). Conditions: TR-FRET MBNL1-His/biotin-(CUG)12 binding, 665/545 ratio; series mostly up to 57.5 µM.
UniProt Q9NR56, sequence (Q9NR56 whole entry, looked up): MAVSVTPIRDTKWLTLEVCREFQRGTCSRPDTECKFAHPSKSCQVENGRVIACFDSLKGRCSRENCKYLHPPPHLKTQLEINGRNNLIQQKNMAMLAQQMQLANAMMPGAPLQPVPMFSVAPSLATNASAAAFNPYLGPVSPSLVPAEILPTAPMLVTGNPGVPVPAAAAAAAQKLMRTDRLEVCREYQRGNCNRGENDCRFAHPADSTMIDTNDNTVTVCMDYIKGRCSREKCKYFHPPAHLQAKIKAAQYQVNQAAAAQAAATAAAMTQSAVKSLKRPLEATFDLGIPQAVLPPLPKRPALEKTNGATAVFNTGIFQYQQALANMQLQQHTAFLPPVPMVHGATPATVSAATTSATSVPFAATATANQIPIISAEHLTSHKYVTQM
Procedure, shortened: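 Ratiometric TR-FRET (665 over 545 nm, excitation 340 nm) tracks disruption of MBNL1-His/biotin-(CUG)12 complex after 60 min at room temperature, with compounds at 92 nM to 58 uM final.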
Potency is read from the fitted curve at half-maximal effect; tags tell the direction and shape of the fitted curve or compound fluorescence and quenching.

| Structure (SMILES) | Potency |
| --- | --- |
| COc1ccc(C)cc1NC(=O)C(OC(=O)c1ccc([N+](=O)[O-])o1)c1ccccc1 (stereo not drawn) | inconclusive: 35.5 µM [quencher, side channel, partial curve] |
| COc1cccc2cc(C(=O)C3=C(O)C(=O)N(CCCN(C)C)C3c3ccncc3)oc12 (stereo not drawn) | inactive |
| Cc1ccc(Cn2ncc3c(NN)ncnc32)cc1 | inactive |
| Cc1ccc2c(c1)-c1nc3ccccc3cc1C2=NC1CCCCC1 | inconclusive: 3.55 µM [quencher, side channel, full curve] |
| CCN1CCC2(CC1)C(C#N)=C(N)Oc1c2sc2nc(C)cc(C)c12 | inconclusive: 20 µM [quencher, side channel, single point] |
| O=C(O)COc1ccc(S(=O)(=O)NCCc2ccccc2)cc1 | inconclusive: 39.8 µM [quencher, side channel, single point] |
| CN(C)CC(C)(C)CNS(=O)(=O)c1cccc2nsnc12 | inconclusive: 15.8 µM [quencher, side channel, partial curve] |
| CC(C)(C)NC(=O)C(=O)N/N=C/c1ccc(Br)cc1 | inactive |
| CS(=O)(=O)N1CCN(c2ccc(C(=O)NC3C4CC5CC(C4)CC3C5)cc2[N+](=O)[O-])CC1 (stereo not drawn) | inconclusive: 11.2 µM [quencher, side channel, partial curve] |
| CCN(CC)S(=O)(=O)c1cccc(C(=O)N/N=C/c2ccc([N+](=O)[O-])o2)c1 | inconclusive: 8.91 µM [quencher, side channel, partial curve] |
| CC1CCc2nn(CC(=O)NCCN3CCOCC3)cc2C1 (stereo not drawn) | inconclusive: 0.1 µM [fluorescent, side channel, full curve, poor fit] |
| CC(=O)N(C1=C(Cl)C(=O)c2ccccc2C1=O)c1ccc(C(=O)O)cc1 | inconclusive: 15.8 µM [quencher, side channel, partial curve] |
| COc1ccc(Br)cc1S(=O)(=O)N1CCN=C1C | inconclusive: 39.8 µM [fluorescent, side channel, single point] |
| CCOC(=O)CNC(=O)c1nn(-c2ccc(OCC)cc2)c(=O)c2ccccc12 | inconclusive: 20 µM [quencher, side channel, partial curve] |
| CN1CCN(C(=S)NC(=O)c2cccc([N+](=O)[O-])c2)CC1 | inconclusive: 25.1 µM [quencher, side channel, partial curve] |
| COc1cc(C(=O)NCC(=O)N/N=C(C)\C=C\c2ccccc2)cc(OC)c1OC | inconclusive: 20 µM [quencher, side channel, single point] |
| Cc1ccc(S(=O)(=O)Nc2cccc3ncccc23)cc1 | inactive |
| O=C(CC(C(=O)O)c1c[nH]c2ccccc12)c1ccccc1 (stereo not drawn) | inconclusive: 39.8 µM [inhibitor, single point] |
| Cc1ccc[n+](CC(=O)Nc2ccc([N+](=O)[O-])cc2)c1 | inconclusive: 28.2 µM [quencher, side channel, partial curve] |

| Structure (SMILES) | Potency |
| --- | --- |
| O=C(CSc1cc([N+](=O)[O-])cc(S(=O)(=O)Cc2ccccc2)c1)NC1CC1 | inconclusive: 12.6 µM [quencher, partial curve] |
| Cn1cc(/C=C2\SC(=S)N(NC(=O)c3ccccc3Cl)C2=O)c2ccccc21 | inconclusive: 11.2 µM [quencher, side channel, partial curve] |
| Cc1ccc(NC(=O)C(=O)c2c(-c3ccccc3)cc3ccccn23)cc1S(=O)(=O)N1CCOCC1 | inconclusive: 20 µM [quencher, side channel, partial curve] |
| NS(=O)(=O)c1ccc(NC(=S)NCc2ccco2)cc1 | inactive |
| CN(CCc1ccccn1)c1ncnc2[nH]ncc12 | inconclusive: 28.2 µM [quencher, side channel, single point] |
| O=C(NCc1n[nH]c(=S)n1-c1ccccc1)c1ccco1 | inconclusive: 4.47 µM [quencher, side channel, single point] |
| Cc1ccnc(N/C=C(/NC(=O)c2ccccc2)C(=O)N/N=C\c2ccc(Cl)cc2)n1 | inconclusive: 39.8 µM [quencher, side channel, partial curve] |
| CCCCN1C(=O)C(=Nc2cccc3cnccc23)c2ccccc21 | inconclusive: 22.4 µM [quencher, side channel, partial curve] |
| O=C(N/N=C/c1cn(-c2cccs2)nc1-c1ccccc1)c1ccc(O)cc1 | inconclusive: 28.2 µM [quencher, side channel, single point] |
| Cc1[nH]n(-c2ccc(Br)cc2)c(=O)c1C=Nc1ccc(S(=O)(=O)Nc2nccs2)cc1 | inconclusive: 35.5 µM [quencher, side channel, partial curve] |
| Cn1nnnc1SCc1csc(C2C(C#N)=C(N)OC3=C2C(=O)CCC3)c1 (stereo not drawn) | inconclusive: 1 µM [quencher, side channel, single point] |
| C=CCn1cc(-c2cccc(Cl)c2)cc(C#N)c1=O | inconclusive: 25.1 µM [quencher, side channel, single point] |
| Cc1ccc2c(N)c(C(=O)c3ccccc3)sc2n1 | inconclusive: 14.1 µM [quencher, partial curve] |
| O=C(NCCN1CCOCC1)c1cc(-c2cccs2)on1 | inconclusive: 39.8 µM [quencher, side channel, single point] |
| COc1ccc(CSc2nnc(C)n2N)cc1[N+](=O)[O-] | inconclusive: 35.5 µM [quencher, side channel, single point] |
| COc1ccc2cc(CCN3C(=O)c4ccccc4C3=O)c(=O)[nH]c2c1 | inconclusive: 7.08 µM [fluorescent, side channel, single point] |
| O=C(Nc1nc(-c2ccccn2)cs1)C12CC3CC(CC(O)(C3)C1)C2 | inactive |
| COc1ccc(Br)cc1/C=C/C(=O)c1ccc(NC(C)=O)cc1 | inactive |
| NC(=S)N/N=C/c1cccc(O)c1O | inactive |
